{"sequences": {"note": "Protein sequences, listed by entry. Tags and fused reporters are not part of them. Lines headed by an entry give the natural chain unless they say otherwise; changes in a name come on top.", "UniProt P25694": "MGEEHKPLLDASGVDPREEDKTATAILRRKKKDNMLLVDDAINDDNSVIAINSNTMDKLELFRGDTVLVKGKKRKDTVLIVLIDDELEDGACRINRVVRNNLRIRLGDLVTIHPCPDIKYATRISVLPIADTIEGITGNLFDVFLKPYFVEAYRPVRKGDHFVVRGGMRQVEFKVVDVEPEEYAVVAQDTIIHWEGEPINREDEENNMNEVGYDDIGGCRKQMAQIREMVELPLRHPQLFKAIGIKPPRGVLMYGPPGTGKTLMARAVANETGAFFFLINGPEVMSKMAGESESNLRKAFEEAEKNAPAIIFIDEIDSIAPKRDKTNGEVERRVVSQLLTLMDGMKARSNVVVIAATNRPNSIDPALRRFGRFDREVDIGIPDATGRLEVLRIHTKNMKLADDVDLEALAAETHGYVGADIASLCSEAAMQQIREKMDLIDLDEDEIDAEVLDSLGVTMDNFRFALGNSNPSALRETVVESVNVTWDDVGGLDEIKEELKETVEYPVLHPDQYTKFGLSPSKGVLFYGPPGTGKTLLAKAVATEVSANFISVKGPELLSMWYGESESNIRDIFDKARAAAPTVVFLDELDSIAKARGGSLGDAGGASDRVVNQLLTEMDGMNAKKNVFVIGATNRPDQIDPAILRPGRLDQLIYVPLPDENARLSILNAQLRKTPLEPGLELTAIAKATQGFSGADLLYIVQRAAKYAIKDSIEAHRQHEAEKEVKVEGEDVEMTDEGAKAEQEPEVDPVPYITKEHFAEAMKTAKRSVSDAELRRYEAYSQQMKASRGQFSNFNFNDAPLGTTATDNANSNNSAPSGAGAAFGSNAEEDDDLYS", "UniProt Q12306": "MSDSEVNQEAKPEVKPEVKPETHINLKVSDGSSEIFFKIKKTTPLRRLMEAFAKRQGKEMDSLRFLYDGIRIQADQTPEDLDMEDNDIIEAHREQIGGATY"}, "source": "paper PMC6891891", "key": {"[1]": {"target": "T1, GST-Ulp2_(1-400) with sim1,2,3,4,5 mutations (S. cerevisiae) (UniProt P40537)", "T1 sequence": "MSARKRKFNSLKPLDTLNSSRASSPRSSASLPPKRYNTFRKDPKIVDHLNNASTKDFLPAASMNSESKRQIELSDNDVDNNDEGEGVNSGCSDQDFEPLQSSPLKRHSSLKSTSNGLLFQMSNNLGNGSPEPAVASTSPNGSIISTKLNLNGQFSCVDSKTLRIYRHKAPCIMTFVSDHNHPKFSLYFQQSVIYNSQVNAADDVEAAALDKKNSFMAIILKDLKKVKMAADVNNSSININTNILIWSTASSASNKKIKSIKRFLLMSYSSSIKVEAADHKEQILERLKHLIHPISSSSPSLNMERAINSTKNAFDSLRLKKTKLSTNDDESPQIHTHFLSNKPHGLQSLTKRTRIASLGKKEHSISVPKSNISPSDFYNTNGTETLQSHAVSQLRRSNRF", "assay": "pull-down; GST fusions (2.5 μg) on glutathione Sepharose 4B beads incubated with 2.5 μg His-tagged Smt3 or 2.5 μg poly-SUMO3 chains in 0.7 mL 1X PBS, 150 mM NaCl, 1% Triton X-100, overnight at 4°C; 5 washes; western blot with anti-Smt3, anti-SUMO2/3, anti-GST; both purified"}, "[2]": {"target": "T2, GST-Ulp2_(1-400) with sim1,2,3 mutations (S. cerevisiae) (UniProt P40537)", "T2 sequence": "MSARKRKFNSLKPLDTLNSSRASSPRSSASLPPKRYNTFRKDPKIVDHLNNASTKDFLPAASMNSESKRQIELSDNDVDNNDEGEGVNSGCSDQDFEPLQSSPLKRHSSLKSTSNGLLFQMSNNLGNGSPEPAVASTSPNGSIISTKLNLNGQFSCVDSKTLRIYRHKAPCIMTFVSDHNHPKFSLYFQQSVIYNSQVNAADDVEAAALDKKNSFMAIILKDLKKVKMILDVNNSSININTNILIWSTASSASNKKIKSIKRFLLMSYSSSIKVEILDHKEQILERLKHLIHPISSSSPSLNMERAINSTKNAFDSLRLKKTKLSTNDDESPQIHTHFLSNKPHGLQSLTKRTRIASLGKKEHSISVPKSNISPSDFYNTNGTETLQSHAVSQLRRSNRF", "assay": "pull-down; GST fusions (2.5 μg) on glutathione Sepharose 4B beads incubated with 2.5 μg His-tagged Smt3 or 2.5 μg poly-SUMO3 chains in 0.7 mL 1X PBS, 150 mM NaCl, 1% Triton X-100, overnight at 4°C; 5 washes; western blot with anti-Smt3, anti-SUMO2/3, anti-GST; both purified"}, "[3]": {"target": "T3, GST-Ulp2_(1-400), recombinant GST fusion of the Ulp2 N terminus (S. cerevisiae) (UniProt P40537)", "T3 sequence": "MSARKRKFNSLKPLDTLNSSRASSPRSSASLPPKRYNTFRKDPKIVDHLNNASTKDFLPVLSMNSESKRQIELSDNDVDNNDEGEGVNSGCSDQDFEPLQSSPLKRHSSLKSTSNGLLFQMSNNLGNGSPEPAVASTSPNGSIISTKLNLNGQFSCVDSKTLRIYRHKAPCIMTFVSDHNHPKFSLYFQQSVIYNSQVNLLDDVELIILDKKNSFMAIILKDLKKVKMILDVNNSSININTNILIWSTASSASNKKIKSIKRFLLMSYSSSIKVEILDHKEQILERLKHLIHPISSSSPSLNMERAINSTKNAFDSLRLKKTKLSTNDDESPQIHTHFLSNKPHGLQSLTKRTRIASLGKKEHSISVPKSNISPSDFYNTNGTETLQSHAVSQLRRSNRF", "assay": "pull-down; GST fusions (2.5 μg) on glutathione Sepharose 4B beads incubated with 2.5 μg His-tagged Smt3 or 2.5 μg poly-SUMO3 chains in 0.7 mL 1X PBS, 150 mM NaCl, 1% Triton X-100, overnight at 4°C; 5 washes; western blot with anti-Smt3, anti-SUMO2/3, anti-GST; both purified"}, "[4]": {"target": "Cdc48 segregase, Y2H fusion (S. cerevisiae) (UniProt P25694)", "assay": "two-hybrid; directed Y2H: pGAD-C1 (AD) and pGBD-C1 (BD) fusions cotransformed into the Y2HGold strain; HIS3 reporter, 8 mM 3-AT added in Figure 4D"}, "[5]": {"target": "T4, Dbf4, AD-fusion and BD-fusion for Y2H (S. cerevisiae) (UniProt P32325)", "T4 sequence": "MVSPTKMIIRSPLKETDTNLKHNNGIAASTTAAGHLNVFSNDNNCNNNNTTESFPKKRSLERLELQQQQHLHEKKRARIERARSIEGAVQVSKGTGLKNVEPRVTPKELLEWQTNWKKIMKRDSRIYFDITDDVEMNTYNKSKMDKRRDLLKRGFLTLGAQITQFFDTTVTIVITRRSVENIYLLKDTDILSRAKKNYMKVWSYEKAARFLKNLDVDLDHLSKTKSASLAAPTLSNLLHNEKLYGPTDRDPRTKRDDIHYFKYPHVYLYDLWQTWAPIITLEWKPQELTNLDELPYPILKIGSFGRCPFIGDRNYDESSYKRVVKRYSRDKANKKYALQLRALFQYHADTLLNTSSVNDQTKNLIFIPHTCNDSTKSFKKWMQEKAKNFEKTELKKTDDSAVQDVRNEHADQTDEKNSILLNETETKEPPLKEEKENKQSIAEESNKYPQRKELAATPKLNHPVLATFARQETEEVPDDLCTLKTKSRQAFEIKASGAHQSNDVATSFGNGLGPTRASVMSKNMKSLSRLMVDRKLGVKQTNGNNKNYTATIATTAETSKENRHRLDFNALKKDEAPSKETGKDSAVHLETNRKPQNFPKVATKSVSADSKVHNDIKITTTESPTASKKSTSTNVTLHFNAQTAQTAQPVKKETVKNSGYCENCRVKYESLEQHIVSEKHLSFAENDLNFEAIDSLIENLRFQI", "assay": "two-hybrid; directed Y2H: pGAD-C1 (AD) and pGBD-C1 (BD) fusions cotransformed into the Y2HGold strain; HIS3 reporter, 8 mM 3-AT added in Figure 4D"}}, "note": "Results are given in words; binding and its absence hold for the method and conditions named. Some entries that bind do so weakly or less than the wild type. Where a sequence is shown, tags or fusion partners need not be part of it.", "data": [{"molecule": "Recombinant budding yeast N-terminally His-tagged wild-type SUMO (^HisSUMO) (from UniProt Q12306 1-101)", "values": [{"measurement": "binding", "setting": "[1]", "value": "binds weakly"}, {"measurement": "binding", "setting": "[2]", "value": "binds"}, {"measurement": "binding", "setting": "[3]", "value": "binds"}]}, {"molecule": "catalytically dead Ulp2 (Ulp2-C624S), AD-fusion and BD-fusion for Y2H (enzyme, UniProt P40537 1-1034) MSARKRKFNSLKPLDTLNSSRASSPRSSASLPPKRYNTFRKDPKIVDHLNNASTKDFLPVLSMNSESKRQIELSDNDVDNNDEGEGVNSGCSDQDFEPLQSSPLKRHSSLKSTSNGLLFQMSNNLGNGSPEPAVASTSPNGSIISTKLNLNGQFSCVDSKTLRIYRHKAPCIMTFVSDHNHPKFSLYFQQSVIYNSQVNLLDDVELIILDKKNSFMAIILKDLKKVKMILDVNNSSININTNILIWSTASSASNKKIKSIKRFLLMSYSSSIKVEILDHKEQILERLKHLIHPISSSSPSLNMERAINSTKNAFDSLRLKKTKLSTNDDESPQIHTHFLSNKPHGLQSLTKRTRIASLGKKEHSISVPKSNISPSDFYNTNGTETLQSHAVSQLRRSNRFKDVSDPANSNSNSEFDDATTEFETPELFKPSLCYKFNDGSSYTITNQDFKCLFNKDWVNDSILDFFTKFYIESSIEKSIIKREQVHLMSSFFYTKLISNPADYYSNVKKWVNNTDLFSKKYVVIPINISYHWFSCIITNLDAILDFHQNKDKNDAINSDEISINNPLVNILTFDSLRQTHSREIDPIKEFLISYALDKYSIQLDKTQIKMKTCPVPQQPNMSDSGVHVILNIRKFFENPVETIDVWKNSKIKSKHFTAKMINKYFDKNERNSARKNLRHTLKLLQLNYISYLKKENLYEEVMQMEEKKSTNINNNENYDDDDEEIQIIENIDQSSKDNNAQLTSEPPCSRSSSISTTEREPTELHNSVVRQPTGEIITDNEDPVRAASPETASVSPPIRHNILKSSSPFISESANETEQEEFTSPYFGRPSLKTRAKQFEGVSSPIKNDQALSSTHDIMMPSPKPKRIYPSKKIPQLSSHVQSLSTDSMERQSSPNNTNIVISDTEQDSRLGVNSESKNTSGIVNRDDSDVNLIGSSLPNVAEKNHDNTQESNGNNDSLGKILQNVDKELNEKLVDIDDVAFSSPTRGIPRTSATSKGSNAQLLSNYGDENNQSQDSVWDEGRDNPILLEDEDP", "values": [{"measurement": "binding", "setting": "[4]", "value": "binds"}, {"measurement": "binding", "setting": "[5]", "value": "binds"}]}]}
